Measurements: the RNAGym collection of RNA variant scans (doi:10.1073/pnas.2313332121)
Variants at the floor of the assay are shown more often than the library holds them.

B1: TPR 5TU (parent)
chain: GGAUCUUCUCGAUCUAACAAAAAAGACAAAUCUGCCACAAAGCUUGAGAGCAUCUUCGGAUGCAGAGGCGGCAGCCUUCGGUGGCGCGAUAGCGCCAACGUUCUCAACUAUGACACGCAAAACGCGUGCUCCGUUGAAUGGAGUUUAUCAUG

Variants of: B1
Assay: polymerase ribozyme fitness, log enrichment relative to wild type (log ratio); higher = more active; in vitro selection for triplet polymerase activity
In short: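 Mutant libraries for each subunit of a heterodimeric triplet polymerase ribozyme were made by PCR and then transcribed. Each library underwent one round of in vitro selection in triplicate: annealing with a biotinylated primer, the partner subunit and triplets, frozen incubation at −7 °C, gel excision of extended constructs, streptavidin-bead capture and RT-PCR. Input and output libraries were Illumina-sequenced, and only genotypes with ≥10 input reads and ≥1 read per output were kept. Fitness is the logarithm, base 2, of genotype enrichment over wild-type enrichment, computed from inverse-variance-weighted replicate averages.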

Variant	polymerase ribozyme fitness (log ratio)
G59U C69G	-1.07
U56A A89C U139C	≤ -4.2
G59U C85A G140U U151G	≤ -4.2
G59U G152C	-2.8
G58C U61G U102A C103G	≤ -4.2
C57U U151A	-4.18
C57G G83A C85G C114G C123U	≤ -4.2
U56A C57G A113C	-1.82
C57A A60G U101A U109A A113U	-3.65
G59A G100C A142U	≤ -4.2
U56A U146A U148C	-2.96
G58C U61A G133U A147G	≤ -4.2
U56C C85A C131G	-3.7
U56A A73U C85G A110U	≤ -4.2
G58C G70C U130G	≤ -4.2
C57U G59U C69G C76G G88U U146A G152U	≤ -4.2
U56A G83C G100U	≤ -4.2
U56G C96A C118U A137U G140C G141C	≤ -4.2
U56G C76A C79G U82A C93G U102G C103U C125A C129U U145G A150U	≤ -4.2
G59U C93A G133A A138U G141A	≤ -4.2
U56A C75U G143A	-0.711

Variant	polymerase ribozyme fitness (log ratio)
C57A A73G C125A	-0.303
G59C G62U U102G G133C	≤ -4.2
C57A U104G A120U	-0.824
G59C A60C U77A C85A G140A U144C	≤ -4.2
C57U G58C G59C G80A U145G C149U	≤ -4.2
C57A G68U U101G U135C	≤ -4.2
G58A G80U G84A G88A	≤ -4.2
C57G C93A C99G	≤ -4.2
U56A C96G U139G	-0.96
U56A G83U C93G G124A G136U U146G	≤ -4.2
U56A G65C A91C C103A G133U	≤ -4.2
U56G A73G G117U C149G G152U	≤ -4.2
U56A G88C C114U A115G G141U	≤ -4.2
C57A G68U C85G G124C U151G	≤ -4.2
G58U G62U C99U C118U U134C	≤ -4.2
G59C U82G A89U C105A A107C	≤ -4.2
U56A C99U U134G C149A	≤ -4.2
C57U G70A U102G A147C	≤ -4.2
C57A U102C C103U	-2.76
U56C G70C C85U C93G A97C A120C	≤ -4.2
G59A G88C G92U	≤ -4.2

Variant	polymerase ribozyme fitness (log ratio)
U56A G59A A113C G152U	≤ -4.2
G58A G59U U61A G86A A97G C116U C132G	≤ -4.2
C57U A113C	-2.27
G59C A60C A137U	≤ -4.2
G59A G67A C69U U111G G117U	≤ -4.2
G58C G71C A142C	≤ -4.2
G59C G81A	-2.07
G59A C149A	-3.65
G58U	-0.0298
G58A	0.338
G58A G92A C123G	-4.01
G59U C75U C76U C93G A115U	≤ -4.2
U56A C85G C103G C108G	≤ -4.2
U56G G68C	≤ -4.2
G59U U139C	-3.8
G59C G88C A106U C108U	≤ -4.2
G58A U102G A121U	-2.85
G59C C76G G136A	≤ -4.2
C57U A64C A89U G128U U148A	≤ -4.2
G59A U90G U144G	≤ -4.2
G58U A91G	-2.46

Variant	polymerase ribozyme fitness (log ratio)
C57U C87U A113C A119G	-3.09
U56A C95U C99U C125G	-2.57
G59A C75U A89C U144C A150U	≤ -4.2
U56A C93U C116U	-1.11
G59C C87A U109A G133C	≤ -4.2
U56G A64G G65C A91C C93U	≤ -4.2
C57U G71C G86A U104A	≤ -4.2
C57A G136A	0.714
G58C U61A A66G	≤ -4.2
G58C C85U A89G G136A	-3.96
G58U C79A	≤ -4.2
G58U C96U G141A G143A	≤ -4.2
U56G C87A	≤ -4.2
G58C G86U U104G	-1.93
G58U G65U G70U C79A C93G C105G G143C	≤ -4.2
G59C G126U	0.134
U56A C96U C99A A107C	≤ -4.2
G59A A60U C87A U127C U145G	≤ -4.2
C57G C96G U145A	-0.71
C57G C96A C103G U109G U146A	≤ -4.2
